{"source": "paper PMC7819943", "about": "“Rice protein-binding microarrays: a tool to detect cis-acting elements near promoter regions in rice”", "note": "Some of the results follow."}
{"target": "T1, OsWOX13 (Oryza sativa, UniProt Q5QMM3 1-267)", "T1 sequence": "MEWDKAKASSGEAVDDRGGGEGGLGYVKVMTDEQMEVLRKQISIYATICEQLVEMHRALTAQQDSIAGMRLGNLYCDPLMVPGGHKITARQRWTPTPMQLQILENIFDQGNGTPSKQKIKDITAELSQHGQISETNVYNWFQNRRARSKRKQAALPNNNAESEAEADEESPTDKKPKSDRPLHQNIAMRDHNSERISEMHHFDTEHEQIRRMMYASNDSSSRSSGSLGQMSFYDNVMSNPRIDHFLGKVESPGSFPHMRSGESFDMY", "experiment": "protein-binding microarray (RPBM); PBS, 2% BSA, 51.3 ng/ul salmon testes DNA, 50 uM zinc acetate, 200 nM TF, 25 C, 1 h; high values mean tight binding", "conditions": "protein: recombinant; tags: N-terminal polyhistidine and DsRed monomer fusion (pET32a); label: CyDye5-dUTP incorporated in the synthesized complementary strand; 3' TTTTT single-stranded linker to array surface; dsDNA, one strand shown", "summary_of_the_method": "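Ni–NTA purification followed expression in E. coli BL21-CodonPlus of transcription factors fused N-terminally to a polyhistidine tag and DsRed. At 200 nM in PBS with 2% BSA, salmon testes DNA and 50 µM zinc acetate, the protein was incubated for 1 h at 25 °C with a custom Agilent array that had been primer-extended with Cy5-dUTP and blocked with 2% BSA. After washing, the array was read on an Axon 4000B scanner. The binding signal is per-feature fluorescence intensity in arbitrary units.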"}
{"sequence": "TACATGGGACACGAATTGACAGAAGCCCATATGGAGATAGCGGAGTCACCTAGTGCAG", "binding signal": "3150 fluorescence intensity (a.u.)"}
{"sequence": "GCCATTATTAAATTGTTGCTTGACGTAATTTGTTTAAGCACGGAGTCACCTAGTGCAG", "binding signal": "18500 fluorescence intensity (a.u.)"}
{"sequence": "TCCCGAGATAATTGCACAAGAGATCCCGAAGCAACCCGTGCGGAGTCACCTAGTGCAG", "binding signal": "9500 fluorescence intensity (a.u.)"}
{"sequence": "ACAGCAGTATCATGGTGTGATTGATGCCTAACAAGAGAATCGGAGTCACCTAGTGCAG", "binding signal": "15700 fluorescence intensity (a.u.)"}
{"sequence": "ATAATTGCCATGCATGCACGTTGTCGTTCGTCGACCTTCCCGGAGTCACCTAGTGCAG", "binding signal": "13000 fluorescence intensity (a.u.)"}
{"sequence": "CCTATTTCCGTTTAAATTTCTAATGACGACTCCCATGGTCCGGAGTCACCTAGTGCAG", "binding signal": "3470 fluorescence intensity (a.u.)"}
{"sequence": "TATATTGATTATCGAGTACTCCATTCGTCTTAAAATAAGGCGGAGTCACCTAGTGCAG", "binding signal": "31300 fluorescence intensity (a.u.)"}
{"sequence": "TGATCTAACAAATTATGTCACATACTCACATCGGTCAATACGGAGTCACCTAGTGCAG", "binding signal": "4140 fluorescence intensity (a.u.)"}
{"sequence": "ATATACTTAATTTGAATCTTGGAGCCCATACTCCATGTAGCGGAGTCACCTAGTGCAG", "binding signal": "18400 fluorescence intensity (a.u.)"}
{"sequence": "ATGCAAAATGGAGATGATGGGAAGGACGACTTTGAAAATGCGGAGTCACCTAGTGCAG", "binding signal": "3160 fluorescence intensity (a.u.)"}
{"sequence": "TATGATTTGACCATGTGGTGCTATAGTAAATATTTGCTAACGGAGTCACCTAGTGCAG", "binding signal": "21500 fluorescence intensity (a.u.)"}
{"sequence": "TTTCTTGTTGATTGCAGGATCAAATCAACTGGCACACTAGCGGAGTCACCTAGTGCAG", "binding signal": "21900 fluorescence intensity (a.u.)"}
{"sequence": "AATGCTAATGACAGATTAATTAGGCTTAATAAATTTGTCTCGGAGTCACCTAGTGCAG", "binding signal": "29500 fluorescence intensity (a.u.)"}
{"sequence": "ATAAAATTTAATATTAAATATGCATTTGAACAGCTATAAACGGAGTCACCTAGTGCAG", "binding signal": "6360 fluorescence intensity (a.u.)"}
{"sequence": "ATGGCATGATTTTCATTTTATACGTATTCGGATGGCATGACGGAGTCACCTAGTGCAG", "binding signal": "5660 fluorescence intensity (a.u.)"}
{"sequence": "AAGATAATTAATTTAATCATAACCGAGTTGCATATCTTGCCGGAGTCACCTAGTGCAG", "binding signal": "47300 fluorescence intensity (a.u.)"}
{"sequence": "CTTCGCTTCAATCTAATCTTCCTTTCCAATGCCGATATTACGGAGTCACCTAGTGCAG", "binding signal": "3840 fluorescence intensity (a.u.)"}
{"sequence": "AGGAATTGATGCATTCATCCTGTGATGCTACAAAGAGGACCGGAGTCACCTAGTGCAG", "binding signal": "14900 fluorescence intensity (a.u.)"}
{"sequence": "AGATCAGTTTGACCAAATGTGATTAGTGTTTAATTTATTTCGGAGTCACCTAGTGCAG", "binding signal": "5940 fluorescence intensity (a.u.)"}
{"sequence": "TGGAATGATGTTGGGATTGATGGATGGATGTATGTTTTGTCGGAGTCACCTAGTGCAG", "binding signal": "15300 fluorescence intensity (a.u.)"}
{"sequence": "TGCTAAACTATCATCAATCACCGAACAGAAACAAACGTCACGGAGTCACCTAGTGCAG", "binding signal": "24700 fluorescence intensity (a.u.)"}
{"sequence": "GGTGACTCAGTTTATACCAGATTAATGATCCATTACCTCTCGGAGTCACCTAGTGCAG", "binding signal": "4460 fluorescence intensity (a.u.)"}
{"sequence": "CTTCCATTTATTTCCAGTTATTCACATATGTCGTGCTAAGCGGAGTCACCTAGTGCAG", "binding signal": "4700 fluorescence intensity (a.u.)"}
{"sequence": "ACTTTTACTAACAATCATCTCAACCGTTTGATTTAAGTAGCGGAGTCACCTAGTGCAG", "binding signal": "9390 fluorescence intensity (a.u.)"}
{"sequence": "TAATTATAACTCATTCCAATCAAGCTTTGAATGATTTGTTCGGAGTCACCTAGTGCAG", "binding signal": "10000 fluorescence intensity (a.u.)"}
{"sequence": "ATCTTTAATTTTGATATTTAATTTTAATCATTGGAAAGGGCGGAGTCACCTAGTGCAG", "binding signal": "25000 fluorescence intensity (a.u.)"}
{"sequence": "ATAATTGCAATCAAACATCCAATAGAAAACCAAACCACACCGGAGTCACCTAGTGCAG", "binding signal": "32600 fluorescence intensity (a.u.)"}
{"sequence": "CAATAGCTAATTTATACAATAGTTACCTATAAACATATACCGGAGTCACCTAGTGCAG", "binding signal": "5050 fluorescence intensity (a.u.)"}
{"sequence": "GCGAACGCGATGATTGGAGAGAGCGAAGCTGACCTTCCCTCGGAGTCACCTAGTGCAG", "binding signal": "13000 fluorescence intensity (a.u.)"}
{"sequence": "TATTGAGCCTAATTAATCCATGATTAGCCTATGTGATGCTCGGAGTCACCTAGTGCAG", "binding signal": "24000 fluorescence intensity (a.u.)"}
{"sequence": "TAGCTAAATTTATTTGCTTGGAAAACTCTAGTTACACTGCCGGAGTCACCTAGTGCAG", "binding signal": "6120 fluorescence intensity (a.u.)"}
{"sequence": "GTGGAGGTAATCAATTAATCAATTCAGGTAATGCGGGAGACGGAGTCACCTAGTGCAG", "binding signal": "29200 fluorescence intensity (a.u.)"}
{"sequence": "TTAAATTGACTATAGTTGATTTGTAGCCTACAATTGGCAGCGGAGTCACCTAGTGCAG", "binding signal": "64600 fluorescence intensity (a.u.)"}
{"sequence": "GCACTGATTGAATTGAACTGTATAGAACAAAATGAAATTTCGGAGTCACCTAGTGCAG", "binding signal": "19600 fluorescence intensity (a.u.)"}
{"sequence": "GGGATGACAGCAACCTTACTGATGATGTAGACCTTCGGTTCGGAGTCACCTAGTGCAG", "binding signal": "7120 fluorescence intensity (a.u.)"}
{"sequence": "GAACTTCCAATCAAATCCGCTCCAGCAACAACCGAACACGCGGAGTCACCTAGTGCAG", "binding signal": "6000 fluorescence intensity (a.u.)"}
{"sequence": "AACCTCGCAGGGATTGATTAGGATCGAAACTTGTGTTAAACGGAGTCACCTAGTGCAG", "binding signal": "6640 fluorescence intensity (a.u.)"}
{"sequence": "ATGATTTCATAGTTAATAACCAAATTGACCTACTCTCTGTCGGAGTCACCTAGTGCAG", "binding signal": "15600 fluorescence intensity (a.u.)"}
{"sequence": "GGTAGTTCTATTTGTGATAGATTAACAACAATGGATGAATCGGAGTCACCTAGTGCAG", "binding signal": "5290 fluorescence intensity (a.u.)"}
{"sequence": "ACTAATGTTGATTGATTAAACATGCACACTATTAATGTTGCGGAGTCACCTAGTGCAG", "binding signal": "44300 fluorescence intensity (a.u.)"}
{"sequence": "TATAATAGATAGCCAAATTATATAATAGTTACGTATAAATCGGAGTCACCTAGTGCAG", "binding signal": "13600 fluorescence intensity (a.u.)"}
{"sequence": "GTTTGATGAGTATTAGGCGTGACACATGACAAATCACAGACGGAGTCACCTAGTGCAG", "binding signal": "4350 fluorescence intensity (a.u.)"}
